# Data as given in paper PMC7824383, “Organic Solution Advanced Spray-Dried Microparticulate/Nanoparticulate Dry Powders of Lactomorphin for Respiratory Delivery: Physicochemical Characterization, In Vitro Aerosol Dispersion, and Cellular Studies” (Pharmaceutics, 2020).
# Test system: A549 adenocarcinoma human alveolar basal epithelial cells
# Assay: Resazurin cell viability assay, A549
# Conditions: 48 h exposure, 0.1, 1, 10 and 1000 µg/mL, resazurin fluorescence, p > 0.05
structure (smiles),measurement,value
"CC(C)C[C@H](NC(=O)[C@H](Cc1ccccc1)NC(=O)CNC(=O)[C@H](NC(=O)[C@@H](N)Cc1ccc(O)cc1)[C@H](C)O)C(=O)N[C@@H](CO[C@@H]1O[C@H](CO)[C@@H](O[C@@H]2O[C@H](CO)[C@H](O)[C@H](O)[C@H]2O)[C@H](O)[C@H]1O)C(N)=O [Lactomorphin, H2N-Tyr-D-Thr- Gly-Phe-Leu-Ser-(O-β-Lactoside)-CONH2] (H-Y[dT]GFLS(X1)-NH2)",relative cell viability% vs control,no statistically significant difference

# Square brackets hold non-standard residues; d marks the D form. Peptide text beside a SMILES is read from it. * marks the point of attachment. X1 = OC[C@H]1O[C@@H](O[C@H]2[C@H](O)[C@@H](O)[C@H](*)O[C@@H]2CO)[C@H](O)[C@@H](O)[C@H]1O
